We go through 33 molecules from patent US6403626B1, “Benzimidazole derivatives” (Synaptic Pharmaceutical Corporation, priority 1994, dated 2002).

The structures appear in SMILES notation.

Experiment [1] deals with T1, α2A Human Adrenergic Receptor (Homo sapiens, UniProt P08913).
T1 sequence (P08913 1-465): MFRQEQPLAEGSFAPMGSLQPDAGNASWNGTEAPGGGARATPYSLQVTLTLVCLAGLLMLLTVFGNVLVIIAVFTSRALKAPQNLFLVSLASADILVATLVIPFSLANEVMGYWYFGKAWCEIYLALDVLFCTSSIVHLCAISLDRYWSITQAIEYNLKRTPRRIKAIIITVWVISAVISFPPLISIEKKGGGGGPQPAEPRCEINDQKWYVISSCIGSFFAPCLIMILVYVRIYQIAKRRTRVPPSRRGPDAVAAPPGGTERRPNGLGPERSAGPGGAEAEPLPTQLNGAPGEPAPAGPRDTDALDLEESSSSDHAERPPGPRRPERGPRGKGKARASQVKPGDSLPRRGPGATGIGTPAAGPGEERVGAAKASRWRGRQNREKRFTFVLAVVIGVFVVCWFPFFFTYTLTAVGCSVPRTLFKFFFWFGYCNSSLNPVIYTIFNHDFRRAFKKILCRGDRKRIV
To be noted: for I.A Alpha-2 A: functional cAMP assay; for pEC50 Alpha-2 A: inhibition of forskolin-stimulated cAMP, NA: Not Active.

Experiment [2] addresses T1, α2A Human Adrenergic Receptor. Nature of the experiment: Equilibrium competition binding, [3H] rauwolscine, membranes of transfected LM(tk-) cells. Conditions: for pKi Alpha-2 A: cloned human receptor, [3H] rauwolscine.
The target is the same in experiment [3]. Nature of the experiment: cell-based.

Consider `Clc1cccc(Cl)c1N=C1NCCN1` [Clonidine, reference compound], for which the “I.A Alpha-2 A” value in experiment [1] stood at 1.

As a reminder, the Ki is the equilibrium dissociation constant of an inhibitor or competing ligand from its target. A low value points to tighter binding. As usually defined, the EC50 is the concentration needed to bring the measured effect to its halfway point. A low value points to greater potency. In experiment [2], `c1nc2ccc(NC3=NCCN3)cc2[nH]1` [Example 1, 5-(2-Imidazolin-2-ylamino)Benzimidazole] had a Ki of 18.2 nM. The same molecule gave an EC50 in experiment [3] of 57.5 nM. Also, in experiment [1], the “I.A Alpha-2 A” value is given as 1.00.

`Brc1c(NC2=NCCN2)ccc2nc[nH]c12` [Example 2, 4-Bromo-5-(2-imidazolin-2-ylamino)Benzimidazole] gave a Ki in experiment [2] of 3.89 nM. Moreover, the “I.A Alpha-2 A” value in experiment [1] came out at 1.00.

In the case of `Clc1c(NC2=NCCN2)ccc2nc[nH]c12` [Example 3, 4-Chloro-5-(2-imidazolin-2-ylamino)Benzimidazole], the affinity in experiment [2], expressed as Ki, was 759 nM. Also, the EC50 in experiment [3] is 0.661 nM. Besides, the “I.A Alpha-2 A” value in experiment [1] turned out to be 1.00.

Consider `Cc1c(N=C2NCCN2)ccc2[nH]cnc12` [Example 4, 4-Methyl-5-(2-imidazolin-2-ylamino)Benzimidazole], for which a half-maximal response in experiment [3] (EC50) required 0.389 nM.

As for `Ic1c(NC2=NCCN2)ccc2nc[nH]c12` [Example 5, 4-Iodo-5-(2-imidazolin-2-ylamino)Benzimidazole], the affinity in experiment [2], expressed as Ki, was 3.55 nM. Besides, the “I.A Alpha-2 A” value in experiment [1] stood at 1.00.

In experiment [2], `CCc1c(NC2=NCCN2)ccc2nc[nH]c12` [Example 6, 4-Ethyl-5-(2-imidazolin-2-ylamino)Benzimidazole] had a Ki of 4.68 nM. The molecule further had a 50% effective concentration (EC50) in experiment [3] of 6.76 nM. For the same molecule, the “I.A Alpha-2 A” value in experiment [1] came to 1.00.

Consider `CCCc1c(NC2=NCCN2)ccc2nc[nH]c12` [Example 7, 4-n-Propyl-5-(2-imidazolin-2-ylamino)Benzimidazole], for which the response in experiment [3] was half-maximal at 7.24 nM (EC50). Also, the “I.A Alpha-2 A” value in experiment [1] worked out at 1.00.

In experiment [3], `CCCCc1c(NC2=NCCN2)ccc2nc[nH]c12` [Example 8, 4-n-Butyl-5-(2-imidazolin-2-ylamino)Benzimidazole] showed an EC50 of 135 nM. In addition, the “I.A Alpha-2 A” value in experiment [1] is listed as 0.90.

Consider `Cn1cnc2cc(NC3=NCCN3)ccc21` [Example 9, 1-Methyl-5-(2-imidazolin-2-ylamino)Benzimidazole], for which the Ki in experiment [2] was 18.2 nM. In experiment [3], this molecule gave a half-maximal effective concentration (EC50) of 224 nM. The “I.A Alpha-2 A” value in experiment [1] is 1.00.

Take `Cn1cnc2c(Br)c(NC3=NCCN3)ccc21` [Example 10, 1-Methyl-4-bromo-5-(2-imidazolin-2-ylamino)Benzimidazole]: the affinity in experiment [2], expressed as Ki, was 5.89 nM. It took 3.02 nM to reach a half-maximal effect in experiment [3] (EC50). Besides, the “I.A Alpha-2 A” value in experiment [1] was determined as 1.00.

`Cn1cnc2ccc(NC3=NCCN3)c(Br)c21` [Example 12, 3-Methyl-4-bromo-5-(imidazolin-2-ylamino)Benzimidazole]: the “pKi Alpha-2 A” value in experiment [2] was determined as 8.20. Besides, in experiment [1], the “I.A Alpha-2 A” value was determined as 1.00 and the “pEC50 Alpha-2 A” value is given as 7.27.

Turning to `CCCn1cnc2c(Br)c(NC3=NCCN3)ccc21` [Example 14, 1-Propyl-4-bromo-5-(imidazolin-2-ylamino)Benzimidazole], the “pKi Alpha-2 A” value in experiment [2] is on record as 8.02. In addition, in experiment [1], the “I.A Alpha-2 A” value amounted to 1.00 and the “pEC50 Alpha-2 A” value is on record as 6.60.

The molecule `CCCn1cnc2ccc(NC3=NCCN3)cc21` [Example 15, 3-Propyl-5-(2-imidazolin-2-ylamino)Benzimidazole] had a Ki in experiment [2] of 115 nM.

As for `CCCn1cnc2ccc(NC3=NCCN3)c(Br)c21` [Example 16, 3-Propyl-4-bromo-5-(2-imidazolin-2-ylamino)Benzimidazole], the EC50 in experiment [3] was 398 nM. Besides, in experiment [1], the “I.A Alpha-2 A” value stood at 1.00.

`CC(C)n1cnc2cc(NC3=NCCN3)ccc21` [Example 17, 1-Isopropyl-5-(2-imidazolin-2-ylamino)Benzimidazole]: the “I.A Alpha-2 A” value in experiment [1] is on record as 1.00.

For `CC(C)n1cnc2c(Br)c(NC3=NCCN3)ccc21` [Example 18, 1-Isopropyl-4-bromo-5-(2-imidazolin-2-ylamino)Benzimidazole], the affinity in experiment [2], expressed as Ki, was 4.47 nM. The molecule further showed an EC50 in experiment [3] of 83.2 nM. Also, in experiment [1], the “I.A Alpha-2 A” value was determined as 0.80.

On to `CC(C)n1cnc2c(I)c(NC3=NCCN3)ccc21` [Example 19, 1-lsopropyl-4-Iodo-5-(2-imidazolin-2-ylamino)Benzimidazole], for which the Ki in experiment [2] was 4.68 nM. In experiment [3], this molecule gave an EC50 of 490 nM. Further, the “I.A Alpha-2 A” value in experiment [1] is listed as 0.70.

In experiment [2], `CC(C)n1cnc2ccc(NC3=NCCN3)cc21` [Example 20, 3-Isopropyl-5-(2-imidazolin-2-ylamino)Benzimidazole] showed a Ki of 240 nM. This lies in the sub-micromolar range.

`CC(C)n1cnc2ccc(NC3=NCCN3)c(Br)c21` [Example 21, 3-Isopropyl-4-bromo-5-(2-imidazolin-2-ylamino)Benzimidazole] had a Ki in experiment [2] of 6.46 nM. Moreover, the EC50 in experiment [3] was 251 nM. For the same molecule, the “I.A Alpha-2 A” value in experiment [1] is 0.90.

Turning to `CC(C)Cn1cnc2c(Br)c(NC3=NCCN3)ccc21` [Example 23, 1-Isobutyl-4-bromo-5-(2-imidazolin-2-ylamino)Benzimidazole], the affinity in experiment [2], expressed as Ki, was 12.6 nM. The same molecule gave a concentration for a half-maximal effect (EC50) in experiment [3] of 692 nM. Besides, the “I.A Alpha-2 A” value in experiment [1] amounted to 0.90.

`Brc1c(NC2=NCCN2)ccc2c1ncn2C1CCCC1` [Example 26, 1-Cyclopentyl-4-bromo-5-(2-imidazolin-2-ylamino)Benzimidazole] showed a Ki in experiment [2] of 11.7 nM. This lies in the double-digit nanomolar range.

In turn, `Brc1c(NC2=NCCN2)ccc2ncn(C3CCCC3)c12` [Example 28, 3-Cyclopentyl-4-bromo-5-(2-imidazolin-2-ylamino)Benzimidazole] gave a Ki in experiment [2] of 3.89 nM.

Take `c1cc2c(cc1NC1=NCCN1)ncn2CC1CCCCC1` [Example 29, 1-Cyclohexylmethyl-5-(2-imidazolin-2-ylamino)Benzimidazole]: in experiment [2], the inhibition constant Ki was 26.3 nM.

On to `Brc1c(NC2=NCCN2)ccc2c1ncn2CC1CCCCC1` [Example 30, 1-Cyclohexylmethyl-4-bromo-5-(2-imidazolin-2-ylamino)Benzimidazole], for which, in experiment [2], the Ki was 17.4 nM.

For the molecule `Brc1c(NC2=NCCN2)ccc2ncn(CC3CCCCC3)c12` [Example 31, 3-Cyclohexylmethyl-4-bromo-5-(2-imidazolin-2-ylamino)Benzimidazole], in experiment [2], the inhibition constant Ki was 6.61 nM.

Take `c1ccc(Cn2cnc3cc(NC4=NCCN4)ccc32)cc1` [Example 32, 1-Benzyl-5-(2-imidazolin-2-ylamino)Benzimidazole]: in experiment [2], the Ki is 11 nM.

`Brc1c(NC2=NCCN2)ccc2c1ncn2Cc1ccccc1` [Example 33, 1-Benzyl-4-bromo-5-(2-imidazolin-2-ylamino)Benzimidazole] showed an inhibitory constant (Ki) in experiment [2] of 3.39 nM.

Consider `c1ccc(Cn2cnc3ccc(NC4=NCCN4)cc32)cc1` [Example 34, 3-Benzyl-5-(2-imidazolin-2-ylamino)Benzimidazole], for which, in experiment [2], affinity was put at a Ki of 38 nM.

For the molecule `Brc1c(NC2=NCCN2)ccc2ncn(Cc3ccccc3)c12` [Example 35, 3-Benzyl-4-bromo-5-(2-imidazolin-2-ylamino)Benzimidazole], the Ki in experiment [2] was 3.47 nM.

In experiment [2], `Brc1c(NC2=NCCN2)ccc2nc(C3CC3)[nH]c12` [Example 47, 2-Cyclopropyl-4-bromo-5-(2-imidazolin-2-ylamino)Benzimidazole] had an inhibition constant (Ki) of 6.76 nM. In experiment [3], the EC50 is 46.8 nM.

Consider `Brc1c(NC2=NCCN2)ccc2nc(C(c3ccccc3)c3ccccc3)[nH]c12` [Example 48, 2-Diphenylmethyl-4-bromo-5-(2-imidazolin-2-ylamino)Benzimidazole], for which affinity in experiment [2] was put at a Ki of 77.6 nM.

For `c1ccc(-c2cc(NC3=NCCN3)cc3[nH]cnc23)cc1` [Example 57, 7-Phenyl-5-(2-imidazolin-2-ylamino)Benzimidazole], the Ki in experiment [2] is 16.6 nM. For the same molecule, in experiment [1], the “I.A Alpha-2 A” value was 0.50.
